From the supplement of paper PMC10338343
± gives the standard deviation. The entries are a selection whose mix differs from that of the whole data set.

tested on: MIWI (PIWIL1) piRISC loaded with piRNA #1 (30 nt); assay: pre-steady-state target cleavage rate (min^-1); MIWI and MILI are mouse PIWI proteins and EfPiwi is from a freshwater sponge; tags in brackets are library labels; higher = faster piRNA-guided slicing of the target; settings: guide: piRNA #1 5'p-UGAGGUAGUAGGUUGUAUAGUAUCCAGAGG; auxiliary factor: 500 nM mouse GTSF1
Method in brief: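 Using HEPES–potassium acetate buffer at 33 °C, 1 nM active affinity-purified piRISC with a single synthetic guide was mixed with 0.1 nM transcribed, DNA-blocked target RNA library for 0–8 or 0–960 min, with or without 500 nM GTSF1 partner protein. Uncleaved targets were sequenced and normalised to depth and to weakly complementary targets, and three trials were pooled with k3 capped at 0.0001 min^-1. A burst-and-steady-state fit gave the pre-steady-state cleavage rate.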

Sequence	pre-steady-state target cleavage rate
GGAGACCUAACUAUACAACCUACUACCUCC [g2:g21:cont:t1C]	0.927 ± 0.066
GGAGACCUAUCUCUACAACCUACUACCUCA	0.242 ± 0.034
GGAGACCUAUGUCUACAACCUACUACCUCA	0.0169 ± 0.0072
GGAGAGGAUACUAUACAAACUACUACCUCA	0.432 ± 0.029
GGACUCGAUACUAUACAACCUACUACGUCA	0.54 ± 0.052
GCUCUGGAAACUAUACAACCUACUAGCUCA	0.837 ± 0.13
GGAGAGCAUACUAUACAUCCUACUACCUCA	1.49 ± 0.1
GGAGACGAUACUAUACAACCUACCACCUCA	0.737 ± 0.045
GGAGUGGAUACUAUACAACCUACUACGAGA	0.00866 ± 0.0068
GGUCUGCAUAGUAUACAACCUACUACCUCA	1.6 ± 0.14
GCUCUGGAUACAAUACAACGUACUACCUCA	0.941 ± 0.057
GGAGACGGAUACUAUACAACCUACUACCUCA	1.7 ± 0.08
GGAGACCUAUGUAUACAACCUAGUACCACA	0.00838 ± 0.0025
GGAGACCUAUGUAUACCACCUACUACCUCA	0.0149 ± 0.0026
GGACUGCAUACUAUACAACCAACUACCUCA	0.088 ± 0.0079
CCUCUGGAUACUAUACAACCUACUACCACA	1.95 ± 0.14
GGAGACCUAUGAUAUGUUCCUACAUCCUCA	< 0.0001
CCACUGGAUACAAUACAACCUACUACCUCA	1.85 ± 0.11
GGUCUGGAUACUAUACUACGUACUACCUCA	0.469 ± 0.049
GGACUGGAUACUAAACAACCUACUAGCUCA	0.0977 ± 0.019

Sequence	pre-steady-state target cleavage rate
GGAGACCUAUGUGUACAACCUACUACCUCA	0.0194 ± 0.0048
GGAGACCUAUCAAUACAACCUAGUACCUCA	0.00728 ± 0.0036
GGAGACCUUACUAAACAACCUACUUCCUCA	0.075 ± 0.015
GGAGACCUAUCUAUACUAGCUACUACCUCA	0.00864 ± 0.0029
CCUCUGGAUACUAUACAACCUACUACCUUCA	1.88 ± 0.12
GGAGACCUAUCUAUUCAACCUACUUCCUCA	0.00896 ± 0.0025
GGACUGGAUACAAUACAACCUACUACCUGA	0.458 ± 0.084
GGUCAGGUUACUAUACAACCUACUACCUCA	1.8 ± 0.11
GGAGACGUUACUAUUCAACCUACUACCUCA	1.37 ± 0.1
CCUCUGGAUUCUAUAGAACCUACUACCUCA	0.834 ± 0.053
GGAGACCUAACAAUACAACCUACUACCACA	0.00615 ± 0.0049
GCUCUGGAUACUAUACUUGCUACUACCUCA	0.0746 ± 0.012
CCUCAGGAAACUAUACAACCUACUACCUCA	2.04 ± 0.1
GGAGAGGAUACAAUACAACCUUCUACCUCA	0.476 ± 0.027
GGAGUGGAUACUAUAUAACCUACUACCUCA	1.77 ± 0.092
GGACUGGAUACUAUACAUCGUACUACCUCA	0.4 ± 0.051
CGUCUGGAUUCUAUACAACCUACUACCUCA	1.82 ± 0.11
GGAGACCUAUGAUAACAACCUUCUAGCUCA	< 0.0001
GGAGACCGUACUAUACAACCUACUACCUCA	1.49 ± 0.12
CCUCUGGAUACUAUUCAACGUACUACCUCA	0.952 ± 0.062
